This is an account of results in PubChem BioAssay AID1240 (Sanford-Burnham Center for Chemical Genomics, 2008).

The structures appear in SMILES notation. The campaign covered roughly 50,000 compounds. About 800 (1.6%) showed an effect of 50% or more. The list shows a part of the results.

This assay deals with Bcl-2-like protein 10 (Homo sapiens) (UniProt Q9HD36). As to the kind of experiment: Phenotype converters, Bcl-B/TR3 peptide binding displacement, primary biochemical FP (AID 1240).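 Further: 0% = Bcl-B with tracer peptide and DMSO and 100% = tracer peptide lacking Bcl-B.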 Particulars: GST-Bcl-B / FITC-TR3 peptide fluorescence polarization; stronger effect = higher value; compound at 3.75 mg/L. On the technique in general: In fluorescence polarisation assays a small probe gives low polarisation when free and higher when bound to something large.
Sequence of UniProt Q9HD36 (Q9HD36 whole entry, looked up): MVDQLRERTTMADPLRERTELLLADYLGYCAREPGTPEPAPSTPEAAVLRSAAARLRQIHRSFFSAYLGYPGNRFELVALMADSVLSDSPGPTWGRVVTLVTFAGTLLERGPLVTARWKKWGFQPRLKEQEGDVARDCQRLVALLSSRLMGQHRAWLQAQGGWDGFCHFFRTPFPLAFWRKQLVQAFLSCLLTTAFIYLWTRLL
Consider `CCOC(=O)c1ccc(N2C(=O)c3ccc(C(=O)Nc4ccccc4C(=O)O)cc3C2=O)cc1`, for which the displacement came out at 10.8%.
As for `NC1=NC(=O)/C(=C/c2ccc(-c3ccc([N+](=O)[O-])cc3Br)o2)S1`, the figure is -5.3%.
As for `CCc1ccccc1N1C(=O)NC(=O)/C(=C\c2cc(C)n(-c3cccnc3)c2C)C1=O`, the figure is 11.2%; as for `C/C(=N/NC(=O)C1C(=O)NCC1c1ccccc1)c1ccc2c(c1)CCCC2` (stereo not given), 4.2%; as for `CCOC(=O)CNC(c1ccccc1)c1cc(Br)ccc1NC(C)=O` (stereo not given), 1%.
As to `O=C(Nc1ccc(Cl)cc1)Nc1ccc(-c2nc3ccccc3s2)cc1`, the displacement is 6.5%.
As for `Oc1ccc(Br)cc1CN1CCN(C2CC3CCC2C3)CC1` (stereo not given), the figure is 3.5%; as for `CCOC(=O)C1=C(C)N=c2s/c(=C\c3ccc4c(c3)OCO4)c(=O)n2C1c1ccc(OC(C)=O)cc1` (stereo not given), -50.4%.
As for `O=C(NCc1ccccc1)c1cc2nc(-c3ccccc3)cc(C(F)(F)F)n2n1`, the figure is -7.4%; as for `Cc1ccccc1NC(=O)c1c(-c2cnc3ccccc3c2C(=O)Nc2ccccc2C)cnc2ccccc12`, 1.5%; as for `Cc1ccc2c(c1)N(C(=O)c1ccco1)C(C)(C)c1ssc(=S)c1-2`, 23.6%.
As for `COC(=O)C1=C(C)NC2=C(C(=O)c3ccccc32)C1c1ccc(-c2ccc([N+](=O)[O-])cc2Br)o1` (stereo not given), the figure is 46.9%; as for `C=CCN1C(=O)/C(=C\c2ccc(-c3cc([N+](=O)[O-])ccc3C)o2)C(=O)NC1=S`, 31.1%; as for `CCOC(=O)c1cc(CC)sc1NC(=O)c1cc(NS(=O)(=O)c2ccc(Cl)cc2)ccc1Br`, 5.5%.
For the compound `CCC(Oc1ccccc1)C(=O)Nc1nc2ccc(S(C)(=O)=O)cc2s1` (stereo not given), the displacement turned out to be 1.3%.
As for `COc1ccc(-c2nc3sc4c(c3c(=O)[nH]2)CCCC4)cc1C`, the figure is -19.4%; as for `N#C/C(=C/c1ccc(Sc2ccccc2)o1)C(=O)NCc1ccccc1`, 0.5%.
As for `COc1ccc(N2C(=O)c3ccc(C(=O)Nc4cc(Cl)ccc4C(=O)O)cc3C2=O)cc1`, the figure is 8.7%.
As for `CCOc1ccc(/C=N/Nc2nc(N3CCCCC3)nc(N3CCCCC3)n2)cc1OC`, the figure is 2.7%; as for `CC1=CC(C)(C)Nc2ccc(OC(=O)NC3CCCCC3)cc21`, -3.6%; as for `Cc1cc(C(=O)Nc2ccccc2C(N)=O)ccc1[N+](=O)[O-]`, 3.3%.
On to `CCOc1ccc(-c2cc(C(=O)NC(C)C)c3ccccc3n2)cc1`, for which the displacement was -5.3%.
As for `O=C1NC(=O)N(c2ccc(Br)cc2)C(=O)/C1=C\C=C\c1ccco1`, the figure is 14%; as for `CC(NC(=O)C(O)CN1CCOCC1)C1COc2ccccc2O1` (stereo not given), 4.2%.
As for `COC(C)(C)C(=O)C(C(=O)c1ccccc1)/C(=C/C(=O)c1ccccc1)C(C)(C)OC` (stereo not given), the figure is 23.7%.
As for `O=C(NCCN1CCOCC1)c1ccccc1Br`, the figure is -3.4%; as for `COc1ccc(OC)c(N(CC(=O)Nc2ccccc2Br)S(C)(=O)=O)c1`, 9.9%.
Turning to `O=C1c2ccc3c4c(ccc(c24)C(=O)N1Cc1ccco1)CC3`, the displacement worked out at 9.5%.
As for `O=C1c2ccccc2NC(c2ccc(O)cc2)N1c1ccccc1` (stereo not given), the figure is 12.7%; as for `CCOC(=O)C(=O)N1c2ccccc2C(Nc2ccccc2)CC1C` (stereo not given), -2.2%.
Regarding `Cc1ccc(C2CC(C(F)(F)F)n3nc(C(=O)N4CCN(C)CC4)c(Cl)c3N2)cc1` (stereo not given), the displacement turned out to be 0.6%.
With `CCc1c(C)sc(NC(=O)c2c(-c3ccccc3Cl)noc2C)c1C(N)=O`, the displacement was -11.8%.
With `O=C(Nc1ccc(-c2nc3ccccc3o2)c(O)c1)c1ccc(-c2cccc([N+](=O)[O-])c2)o1`, the displacement was found to be 1.9%.
Take `O=C(Nc1ccc(/C=C/C(=O)c2cccs2)cc1)c1ccc(Br)cc1`: the displacement stood at 13.1%.
As for `CN1C(=O)CS/C1=N/S(=O)(=O)c1ccc([N+](=O)[O-])cc1`, the figure is -3.6%.
For `O=C(Nc1ccc2c(c1)OCO2)c1ccc(C#Cc2ccccc2)cc1`, the displacement is -2.8%.
As for `Cn1c(=O)c([N+](=O)[O-])c(NCCCO)c2ccccc21`, the figure is -4.7%; as for `O=S(=O)(c1ccc2ccccc2c1)N1CCN(c2ccccc2)CC1`, 0.6%; as for `NC(=O)c1ccccc1NC(=O)c1ccc(I)cc1`, 7.7%.
As for `O=C(N/N=C/c1cccc2ccccc12)c1cc(-c2cccc3ccccc23)n[nH]1`, the figure is -21.5%; as for `CCCCOc1ccc(/C=N/N2CCN(C)CC2)cc1`, -4%; as for `CC(C)CC(/C(O)=C(\C#N)c1nc2ccccc2[nH]1)N1C(=O)c2ccccc2C1=O` (stereo not given), 6.4%.
As for `CCOC(=O)c1ccc(-n2c(C)cc(C=O)c2C)cc1`, the figure is 3%; as for `CC1(C)CC(NC(=O)c2cccc([N+](=O)[O-])c2)CC(C)(C)N1`, -7.3%; as for `O=C(NC(=S)Nc1ccc(Cl)c(Cl)c1)c1ccc(Cl)cc1`, -5.3%.
With `O=C(NC(=S)Nc1ccccc1C(F)(F)F)c1ccco1`, the displacement is 1.8%.
As for `O=S(=O)(Nc1ccccc1)c1cc(S(=O)(=O)Nc2ccccc2)c2cc(O)ccc2c1`, the figure is -10.9%.
For the compound `CN1C2C=C(N(CCc3c[nH]c4ccccc34)C(=O)c3ccc(F)cc3)CC1CC2` (stereo not given), the displacement is -5.3%.
As for `CCOC(=O)/C=C/C(=O)Nc1nc(-c2ccc3ccccc3c2)cs1`, the figure is -8.3%; as for `CC(C)CCOc1ccc(CN=C(N)N=C(N)N)cc1Cl`, -3.3%; as for `O=C1c2ccc(Oc3ccc([N+](=O)[O-])cc3)cc2C(=O)N1CCO`, 4.9%.
As for `CCOc1cc(/C=C2/C(=O)NC(=O)N(C)C2=O)cc(Br)c1O`, the figure is -1.5%; as for `O=[N+]([O-])c1cccc(C2=Nn3c(Cc4ccccc4)nnc3SC2)c1`, 7.8%.
With `CC(C)CNC(=O)C1CC(=O)N(c2ccc(Cl)cc2)C1` (stereo not given), the displacement was -0.2%.
As for `CN(C)/C=C1\N=C(c2ccccc2)OC1=O`, the figure is 9.3%.
As for `COCC(C)NCc1ccc(OC)cc1` (stereo not given), the figure is 6.6%.
As for `COc1ccc(NC(=O)COc2cccc3ccccc23)c([N+](=O)[O-])c1`, the figure is 0.4%.
For `Cc1cc(C)c2nc3s/c(=C/c4cccn4-c4ccc([N+](=O)[O-])cc4)c(=O)n3c2c1`, the displacement is 1.7%.
As for `O=C(N/C(=C/c1ccccc1)C(=O)N1CCCCC1)c1ccco1`, the figure is 1.4%; as for `CCOC(=O)c1c(N)n(-c2ccccc2O)c2nc3ccccc3nc12`, 19.7%; as for `CCOC(=O)C1=NNC2C(=O)N(Cc3ccccc3)C(=O)C12` (stereo not given), 3.9%.
As for `CCc1c(C)c(C#N)c2nc3ccccc3n2c1N1CCN(C2=NCC(C)(C)S2)CC1`, the figure is -5.3%; as for `CCOc1cc(C=C2C(=O)NC(=O)NC2=O)ccc1OCc1c(C)no[n+]1[O-]`, 108%.
As for `CCN(CC)c1ccc(/C=C(\NC(=O)c2ccccc2)C(=O)NN)cc1`, the figure is -10.2%; as for `Cc1cccc(Nc2nc(-c3c(C)nc4ccccn34)cs2)c1`, 8%; as for `COc1ccc(CN2CC=C(Cc3ccccc3)CC2)cc1`, -11%.
Regarding `O=C(c1cccc(Br)c1)N1N=C(c2ccccc2)CC1(O)C(F)(F)F` (stereo not given), the displacement is -4.5%.
Take `COc1ccc(C(=O)N2CCN(c3ccccc3OC)CC2)cc1`: the displacement was -6.7%.
As for `COc1ccc(N(CC(O)Cn2c3ccccc3c3ccccc32)S(C)(=O)=O)cc1` (stereo not given), the figure is 10.6%.
`Cc1cccc(Cc2cnc(N)s2)c1`: the displacement is 10.5%.
As for `O=C(O)CCC(=O)NCc1ccc(Cl)cc1`, the figure is -11.3%.
On to `CCN1C(=O)/C(=C2\SC(=S)N(C3CCS(=O)(=O)C3)C2=O)c2ccccc21` (stereo not given), for which the displacement amounted to 3.9%.
As for `C=CCn1c(SCC(=O)O)nnc1-c1ccncc1`, the figure is -5.8%; as for `O=C(Nc1ccc(Cl)cn1)c1cccc2c(Br)cccc12`, 6.2%.
For the compound `N#Cc1c(NC(=O)C2CC2)sc2c1CCCCC2`, the displacement is 7.3%.
As for `C(=C\c1ccccc1)/CSc1nnc(-c2cccs2)n1-c1ccccc1`, the figure is 3%; as for `CC1CCc2c(sc(NC(=O)C3CC=CCC3C(=O)O)c2C(N)=O)C1` (stereo not given), -4.2%.
As for `CCOC(=O)c1c(NC(=S)NC(=O)c2ccc(OC)cc2)sc(C)c1C`, the figure is 5.2%; as for `CCOC(=O)Oc1ccc2c(=O)c(Oc3ccc(OC)cc3)c(C(F)(F)F)oc2c1`, -7.3%; as for `CCOc1ccc(N(CC(=O)NCC(C)c2ccccc2)S(=O)(=O)c2ccccc2)cc1` (stereo not given), -6.5%.
`O=C(Nc1ccc(Cl)cc1C(O)c1ccccc1)c1cnn2c1NC(c1ccccc1)CC2C(F)(F)F` (stereo not given): the displacement is -0.6%.
Turning to `O=C(Nc1cccc(-c2nc3ccccc3s2)c1)c1ccc(F)c(F)c1`, the displacement is -5.4%.
As for `O=C(COC(=O)c1ccc(C#CC2(O)CCCCC2)cc1)c1ccc(Br)cc1`, the figure is 2.4%; as for `CCOC(=O)C(C(=O)OCC)c1cc(Nc2cccc(C)c2)c2c3c(onc13)-c1ccccc1C2=O`, 11.8%.
With `NS(=O)(=O)c1ccc(CCNC2CC(=O)N(c3ccc(I)cc3)C2=O)cc1` (stereo not given), the displacement was -19.5%.
Consider `CN1CCC(=NNC(=O)C(=O)NCC2CCCO2)CC1` (stereo not given), for which the displacement was -16.4%.
As for `CCCc1ccccc1OCCNc1nc2c(c(=O)n(C)c(=O)n2C)n1C`, the figure is -8.9%; as for `CC(C)=CC1C(C(=O)Nc2ccc(Cl)cn2)C1(C)C` (stereo not given), -9.1%; as for `Cc1ccccc1OCCCNCC1CCCO1` (stereo not given), 11.6%.
For the compound `CCN(CC)c1ccc(N2C(=O)/C(=C/c3ccc(Cl)cc3)SC2=S)cc1`, the displacement was 12.8%.
As for `CCOc1ccc(-n2c(CN3C(=O)c4ccccc4C3=O)nc3ccccc3c2=O)cc1`, the figure is 8.3%.
As to `CCOC(=O)c1ccc(NC(=O)CN(c2cccc([N+](=O)[O-])c2)S(=O)(=O)c2ccccc2)cc1`, the displacement stood at 8.5%.
Take `COc1cccc(/C=N/NC(=O)c2cnccn2)c1O`: the displacement is -22.1%.
On to `O=C(CNC(=O)c1ccc(Br)cc1)c1ccc(Cl)cc1`, for which the displacement is -4.3%.
For the compound `O=C(N/N=C/C=C/c1ccccc1)c1cc(C2CC2)[nH]n1`, the displacement is -4%.
Take `Cc1ccc(OCC(=O)Nc2ccccc2[N+](=O)[O-])c(C)c1`: the displacement is 9.6%.
As for `Cc1cc(=O)oc2cc(OC/C(=N\O)c3ccc(Cl)cc3)c(Cl)cc12`, the figure is -4.6%; as for `O=C(/C=C/c1ccc(Br)cc1)NC(=S)N1CCOCC1`, 8.5%; as for `CC1=C(C(=O)Nc2ccccc2C)C(c2ccc(Cl)cc2)C2=C(CCCC2=O)N1` (stereo not given), 3.6%.
As for `COc1cc(Br)cc(C=Nc2ccc(C)cn2)c1O`, the figure is 21.6%; as for `Cc1c(C(=O)OC(C)C)sc(NC(=O)c2cccc(Cl)c2)c1C#N`, 4.4%.
As for `CCCOC(=O)C(C(=O)OCCC)=C(N)C(Cl)(Cl)Cl`, the figure is -7.8%; as for `COc1cc(Br)cc(C=Nc2ccccc2C(=O)O)c1O`, 0.8%; as for `CCOc1cccc(C2C(C(=O)Nc3ccccc3C)=C(C)NC3=C2C(=O)CCC3)c1` (stereo not given), 5.9%.
For `CCOC(=O)c1c(NC(=O)c2ccc(OC)c(OC)c2)sc2c1CCC(CC)C2` (stereo not given), the displacement is -6.5%.
